{
  "source": "the supplement of paper PMC11417369",
  "note": "± gives the standard deviation of the averaged measurements. The list shows a part of the results.",
  "data": [
    {"test_system": "PfAP2-EXP AP2 domain (GST-tagged)", "experiment": "gcPBM binding intensity (ln(normalized median fluorescence intensity)); higher = stronger DNA binding", "procedure,_shortened": "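An Agilent 4 × 180k array of primer-extended double-stranded 36-bp intergenic genomic probes, with negative controls, was incubated for 1 h with GST-tagged P. falciparum DNA-binding domains expressed in E. coli. Alexa488 anti-GST antibody detected bound protein, scanned at 488 nm. Binding intensity is the highest Masliner-normalised natural-log median intensity across replicate spots of either probe orientation.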", "values": [
      {"sequence": "TCATTATATACAATATGTACATATATGTAATAAACA [XGTACX_site4611]", "gcPBM binding intensity (ln)": "8.52 ± 0.38"},
      {"sequence": "AAAGGATATGCTTCATATATATATTGTTATATATGT [CACACA_negctrl_site1672]", "gcPBM binding intensity (ln)": "8.17 ± 0.4"},
      {"sequence": "AGCACACGCAGACACACACACACACGCACACGCACA [CACACA_site6306]", "gcPBM binding intensity (ln)": "8.46 ± 0.42"},
      {"sequence": "AGAAAGAAAGAATACACACACACATATATATATATC [CACACA_site3744]", "gcPBM binding intensity (ln)": "8.86 ± 0.32"},
      {"sequence": "AAAGAATTCATTATTTGTACTTAAATAAATAAATAA [XGTACX_site5932]", "gcPBM binding intensity (ln)": "8.27 ± 0.26"},
      {"sequence": "ATAACACAAAAAGGGGGTACAATAAAAAAAAAAAAA [XGTACX_site1652]", "gcPBM binding intensity (ln)": "8.94 ± 0.15"},
      {"sequence": "AATACCTATAATACAACACACAAGTAATATAAACCT [CACACA_site7661]", "gcPBM binding intensity (ln)": "8.8 ± 0.68"},
      {"sequence": "TATTTATATAGGTATACACACATACAAATATGTAAA [CACACA_site7705]", "gcPBM binding intensity (ln)": "8.24 ± 0.38"},
      {"sequence": "ATAAGAAGGAACATAAATATATCATAAAAAAAAAAA [GTGCAC_negctrl_site169]", "gcPBM binding intensity (ln)": "8.56 ± 0.35"},
      {"sequence": "TAAAATTTTTTATTCACACAAATATAGTTATATATA [CACACA_site5348]", "gcPBM binding intensity (ln)": "8.12 ± 0.42"},
      {"sequence": "AAATTAATATAAATATGTACATAAATAATAAAATAT [XGTACX_site6131]", "gcPBM binding intensity (ln)": "8.71 ± 0.5"},
      {"sequence": "AAGGAATAAAGAAGTTGTACATAATTTGTATCATCC [XGTACX_site3891]", "gcPBM binding intensity (ln)": "8.62 ± 0.36"},
      {"sequence": "GTTTTCCTTCCCTTTCCCCCTCAAAAAAAGGGAACA [TGCATGCA_negctrl_site436]", "gcPBM binding intensity (ln)": "9.55 ± 0.33"},
      {"sequence": "GGAGGTTGTTATAAAAGTACAAAAAGTTGCAATTTT [XGTACX_site7351]", "gcPBM binding intensity (ln)": "8.77 ± 0.43"},
      {"sequence": "ATTTTTCAAACTTTAGTGCAATGAAAGAAAGAAAAA", "gcPBM binding intensity (ln)": "8.7 ± 0.18"},
      {"sequence": "ATTTAATACATACATTCACACACACTAATTGTATAT [CACACA_site9361]", "gcPBM binding intensity (ln)": "8.74 ± 0.45"},
      {"sequence": "AAAAAAAAAAAAACTTGTACATGTGATATTATCTAT [XGTACX_site6169]", "gcPBM binding intensity (ln)": "8.65 ± 0.55"},
      {"sequence": "TTAAATGTTCTATATACATGCAATGATATGTTTCTG [TGCATGCA_site317]", "gcPBM binding intensity (ln)": "8.55 ± 0.28"},
      {"sequence": "TCAAAGTAGGCTTATATGCACACTTTGAAATATTAT [CACACA_site1920]", "gcPBM binding intensity (ln)": "8.32 ± 0.23"},
      {"sequence": "ATATATACATATGGGTGTACATATGCACATATATAT [XGTACX_site8437]", "gcPBM binding intensity (ln)": "8.61 ± 0.19"},
      {"sequence": "TTTAAAATAAATATTACACACAAAATATTAAAAAGC [CACACA_site2129]", "gcPBM binding intensity (ln)": "8.77 ± 0.36"},
      {"sequence": "ACAAAAAAAAACGTGGTGCATTAATAATATTGTATA [GTGCAC_site9469]", "gcPBM binding intensity (ln)": "8.79 ± 0.28"},
      {"sequence": "TAGTTAATATGAAAAAGTACACGTTTCAGTGAAAGT [XGTACX_site7402]", "gcPBM binding intensity (ln)": "8.76 ± 0.33"},
      {"sequence": "AAAAAAAAAAAAAAAAAAAAAAAAAAATATATATAT [CACACA_negctrl_site271]", "gcPBM binding intensity (ln)": "9.795 ± 0.049"}
    ]}
  ]
}
